{"source": "patent US20230027029A1", "about": "(AKESO BIOPHARMA, published 2023)", "binders": {"B1": {"name": "VP101(hG4WT) (bispecific antibody, human IgG4 S228P, kappa)", "heavy": "EVQLVESGGGLVQPGGSLRLSCAASGYTFTNYGMNWVRQAPGKGLEWVGWINTYTGEPTYAADFKRRFTFSLDTSKSTAYLQMNSLRAEDTAVYYCAKYPHYYGSSHWYFDVWGQGTLVTVSSASTKGPSVFPLAPCSRSTSESTAALGCLVKDYFPEPVTVSWNSGALTSGVHTFPAVLQSSGLYSLSSVVTVPSSSLGTKTYTCNVDHKPSNTKVDKRV[human IgG4 Fc with S228P (EU numbers) left out here]GGGGSGGGGSGGGGSGGGGSEVQLVESGGGLVQPGGSLRLSCAASGFAFSSYDMSWVRQAPGKGLDWVATISGGGRYTYYPDSVKGRFTISRDNSKNNLYLQMNSLRAEDTALYYCANRYGEAWFAYWGQGTLVTVSSGGGGSGGGGSGGGGSGGGGSDIQMTQSPSSMSASVGDRVTFTCRASQDINTYLSWFQQKPGKSPKTLIYRANRLVSGVPSRFSGSGSGQDYTLTISSLQPEDMATYYCLQYDEFPLTFGAGTKLELKR", "light": "DIQMTQSPSSLSASVGDRVTITCSASQDISNYLNWYQQKPGKAPKVLIYFTSSLHSGVPSRFSGSGSGTDFTLTISSLQPEDFATYYCQQYSTVPWTFGQGTKVEIKRTVAAPSVFIFPPSDEQLKSGTASVVCLLNNFYPREAKVQWKVDNALQSGNSQESVTEQDSKDSTYSLSSTLTLSKADYEKHKVYACEVTHQGLSSPVTKSFNRGEC", "notes": "also called VP101(G4M)"}}, "key": {"FcγRIIIa_F158": {"target": "T1, FcγRIIIa_F158 (UniProt P08637 fragment)", "T1 construct": "also called CD16a F158; hFcGR3A(F158)-his; not shown: His tag ('-his')", "assay": "BLI (Fortebio Octet), FcγRIIIa_F158 immobilized on HIS1K sensor, antibody 31.25-500 nM in solution (the legend prints FcγRIIa_F158; Example 6 gives FIGS. 21-25 as FcγRIIIa_F158)", "method": "The sensor was equilibrated in a buffer for 60 s, and the binding of the immobilized hFcGR3A(F158)-his on the sensor to the antibodies at concentrations of 31.25-500 nM (serial two-fold dilution) was determined for 60 s. The antibody was dissociated in the buffer for 60 s. The sensor was refreshed 4 times in 10 mM glycine pH 1.5, each for 5 s. The detection temperature was 30° C. and the frequency was 0.3 Hz. The data were analyzed by 1:1 model fitting to obtain affinity constants."}, "C1q": {"target": "T2, C1q (UniProt P02745; P02746; P02747)", "T2 construct": "also called serum complement C1q; complement C1q", "assay": "BLI (Fortebio Octet), antibody immobilized on FAB2G sensor, C1q 0.625-10 nM in solution", "method": "The sensor was refreshed 4 times in 10 mM glycine pH 1.7, each for 5 s. The shaking speed of the sample plate was 1000 rpm, the temperature was 30° C. and the frequency was 0.6 Hz. The data were analyzed by 1:1 model fitting to obtain affinity constants. The data acquisition software was Fortebio Data Acquisition 7.0, and the data analysis software was Fortebio Data Analysis 7.0."}}, "data": [{"binder": "B1", "values": [{"measurement": "binding result", "setting": "FcγRIIIa_F158", "result": "no binding (tested: 500 nM)"}, {"measurement": "binding result", "setting": "C1q", "result": "no binding (tested: 10 nM)"}]}]}
